Reference: publication PMC4336329 (PLoS ONE, 2015)
Among all 310,000 compounds or so, about 2,200 (0.71%) showed an effect of 50% or more. Effects have a minus sign here. The list shows a part of the results.

Molecular target: human ether-à-go-go-related gene (hERG) potassium channel (human, UniProt Q12809)
Experiment: primary screen, population patch clamp on CHO cells stably expressing hERG

human ether-à-go-go-related gene (hERG) potassium channel, sequence (Q12809 whole entry, looked up): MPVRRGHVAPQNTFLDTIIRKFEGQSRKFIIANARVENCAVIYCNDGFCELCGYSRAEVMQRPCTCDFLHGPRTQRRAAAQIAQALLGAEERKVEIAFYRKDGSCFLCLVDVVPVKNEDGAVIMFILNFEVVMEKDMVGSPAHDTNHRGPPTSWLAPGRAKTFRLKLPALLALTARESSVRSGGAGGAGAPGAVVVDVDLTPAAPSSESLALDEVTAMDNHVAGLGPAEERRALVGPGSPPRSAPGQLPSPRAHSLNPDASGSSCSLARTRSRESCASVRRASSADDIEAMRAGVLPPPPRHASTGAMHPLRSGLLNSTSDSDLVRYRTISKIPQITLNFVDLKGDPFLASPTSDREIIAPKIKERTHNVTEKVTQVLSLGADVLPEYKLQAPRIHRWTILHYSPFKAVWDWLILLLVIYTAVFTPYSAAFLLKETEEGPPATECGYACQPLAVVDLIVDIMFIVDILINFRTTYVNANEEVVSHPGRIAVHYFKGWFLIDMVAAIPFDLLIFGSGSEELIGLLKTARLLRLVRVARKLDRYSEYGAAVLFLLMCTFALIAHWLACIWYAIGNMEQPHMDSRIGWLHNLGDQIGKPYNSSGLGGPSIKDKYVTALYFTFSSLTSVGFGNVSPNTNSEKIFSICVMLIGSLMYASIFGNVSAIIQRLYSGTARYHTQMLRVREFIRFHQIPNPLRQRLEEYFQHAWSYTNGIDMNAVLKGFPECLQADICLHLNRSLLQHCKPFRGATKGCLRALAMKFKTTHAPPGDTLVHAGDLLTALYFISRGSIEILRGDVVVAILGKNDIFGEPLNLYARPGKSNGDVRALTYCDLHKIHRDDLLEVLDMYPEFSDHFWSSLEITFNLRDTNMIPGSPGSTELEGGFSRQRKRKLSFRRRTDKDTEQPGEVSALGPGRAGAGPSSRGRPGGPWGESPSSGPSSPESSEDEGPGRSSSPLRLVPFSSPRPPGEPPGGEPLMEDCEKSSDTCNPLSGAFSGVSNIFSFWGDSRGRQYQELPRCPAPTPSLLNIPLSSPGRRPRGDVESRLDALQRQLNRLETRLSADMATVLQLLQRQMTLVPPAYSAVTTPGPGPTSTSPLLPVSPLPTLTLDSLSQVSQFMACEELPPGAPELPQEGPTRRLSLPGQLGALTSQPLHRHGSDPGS

Row | SMILES | hERG current change (%, negative = inhibition) at 1uM [%]
1 | CCCCCCNC(=O)Cc1c(O)c2ccccc2[nH]c1=O | 7.67
2 | O=C(CCN1CCN(Cc2ccccc2)CC1)Nc1cccc(Br)c1 | -19.5
3 | C=CCn1c(=O)c(C(=O)NCc2ccccc2)c(O)c2ccccc21 | 13.2
4 | O=C(Nc1cccc2ccccc12)NC(Cc1ccccc1)C(=O)O (stereo not shown) | 15.5
5 | COC(=O)CC(NC(=O)C1CC1)c1ccc2c(c1)OCO2 (stereo not shown) | 0.263
6 | CN(C)c1ccc(CNc2nc(-c3ccccc3)nn2S(C)(=O)=O)cc1 | 14.6
7 | CC1=C(C(=O)Nc2ccccc2)C(c2ccncc2)C(C#N)=C(SCC(=O)NC(C)C)N1 (stereo not shown) | -1.09
8 | COc1ccccc1NS(=O)(=O)c1ccc(O)c(C(=O)OCC(=O)c2ccc(Cl)cc2Cl)c1 | 13.8
9 | Cc1cc(C(=O)CSc2nnc(N)s2)c(C)n1C1CC1 | 3.92
10 | CCCCn1c(N)c(N(C(=O)CSc2nnc(C)n2-c2ccccc2)C2CCCC2)c(=O)[nH]c1=O | 7.51
11 | COc1ccc(CCNc2nnc(C)c(=O)[nH]2)cc1OC | 5.03
12 | COc1ccc(C(=O)Oc2cc(C)c(CN3CCOCC3)cc2C)cc1OC | -1.52
13 | CC1(C)CC(NC(=S)NC(=O)c2cc(Br)ccc2Cl)CC(C)(C)N1 | -2.52
14 | CN1/C(=C\C=C2\N=C(c3ccc(F)cc3)OC2=O)C(C)(C)c2ccccc21 | 3.54
15 | CN(C(=O)Cn1cc(C(F)(F)F)cc(Cl)c1=O)C1CCS(=O)(=O)C1 (stereo not shown) | 11.9
16 | CC(=O)N1CCN(c2ccc(NC(=O)C(C)Oc3ccc(Cl)cc3Cl)cc2)CC1 (stereo not shown) | 1.03
17 | Cc1noc(C)c1S(=O)(=O)N1CCN(C(c2ccccc2)c2ccc(Cl)cc2)CC1 (stereo not shown) | -0.0312
18 | CCCCC(=O)Oc1c(S(=O)(=O)c2ccccc2)c(C)nn1C(C)(C)C | 12.9
19 | CN(C(=O)COC(=O)CNC(=O)c1ccc2ccccc2c1)c1c(N)n(Cc2ccccc2)c(=O)[nH]c1=O | -3.15
20 | N#C/C=C(/c1ccc(F)cc1)N1CCOCC1 | 5.24
21 | O=C(Cc1ccccc1F)NC1CCSc2ccccc21 (stereo not shown) | 14.1
22 | COc1cccc2cc(-c3nnc(-c4ccccc4)o3)c(=O)oc12 | 5.07
23 | O=C(Nc1cccc(S(=O)(=O)N2CCCCC2)c1)C1CCC1 | 14.7
24 | COc1ccccc1CN1C(=O)CCC1(C)C(=O)NCc1cccnc1 (stereo not shown) | 5.57
25 | COc1ccc(/C=N/NC(=O)c2cccc(Br)c2)cc1Cn1cc(Cl)cn1 | 13.4
26 | CCN=C1SCC(=O)N1c1ccc(OC)cc1 | 10.9

Row | SMILES | hERG current change (%, negative = inhibition) at 1uM [%]
27 | COc1cccc(OCc2nc(-c3ccc(Br)o3)no2)c1 | 5.48
28 | C[C@H]1O[C@@H](O[C@H]2[C@@H](O)C[C@H](O[C@H]3[C@@H](O)C[C@H](O[C@H]4CC[C@@]5(C)[C@H](CC[C@@H]6[C@@H]5C[C@@H](O)[C@]5(C)[C@@H](C7=CC(=O)OC7)CC[C@]65O)C4)O[C@@H]3C)O[C@@H]2C)C[C@H](O)[C@@H]1O | 12.8
29 | Cc1c(Cl)cccc1NC(=O)CSc1ccc(-c2cccnc2)nn1 | 13.4
30 | CCOC(=O)c1sc2nc(-c3ccco3)c3c(c2c1N)CC(C)(C)OC3 | 10.9
31 | O=C(CN(Cc1ccccc1)S(=O)(=O)c1ccccc1)N/N=C/c1ccc2c(c1)OCO2 | 10.8
32 | O=C(CN(C(=O)c1ccccc1)N1C(=O)CCC1=O)c1cccs1 | 9.66
33 | COc1cc(NC(=O)Cc2cccc3ccccc23)c(C(=O)O)cc1OC | 15.1
34 | NC(=O)C1CCN(C(=O)Cc2ccc(-c3ccccc3)cc2)CC1 | 13.1
35 | Cc1ccc2nc(Nc3ccc4[nH]c(=O)[nH]c4c3)c(-n3nc(C)cc3C)nc2c1 | 12.3
36 | CN(C(=O)c1ccccc1C(=O)OCC(=O)c1ccccc1)c1ccccc1 | 7.4
37 | NS(=O)(=O)c1ccc(Nc2c([N+](=O)[O-])cncc2[N+](=O)[O-])cc1 | 11.7
38 | Cc1ccc(SCCNC(=O)c2ccccc2C)cc1 | 13.4
39 | O=C(c1cnn(C(=O)c2cccc(S(=O)(=O)N3CCOCC3)c2)c1)c1ccccc1O | 2.5
40 | COc1cccc(-n2c(SCC(=O)NCc3ccco3)nnc2-c2c[nH]c3ccccc23)c1 | -12.8
41 | Cc1cc(C=C2C(=O)c3ccccc3C2=O)c(C)n1-c1cccc(C(=O)O)c1 | 10.8
42 | CC1(C)CC(=O)C(C(=S)Nc2ccc(F)cc2)=C(NCCN2CCOCC2)C1 | 9.49
43 | O=S(=O)(c1ccc(-n2cnnn2)cc1)N1CCN(c2ccccc2F)CC1 | 13.8
44 | CCOC(=O)N1CCN(S(=O)(=O)N2CCCC(C(=O)NCCc3ccccc3)C2)CC1 (stereo not shown) | 6.31
45 | O=S(=O)(c1ccc(Cl)cc1)c1ccc(Cl)cc1 | 11.1
46 | CSc1ccccc1-c1nnc(-c2ccc(Cl)c(Cl)c2)o1 | 11.7
47 | Cc1cccc(N2CCN(c3ccc4cc(S(=O)(=O)N5CCCCC5)ccc4n3)CC2C)c1 (stereo not shown) | 8.5
48 | N#CC1=C(N)SC(C(=O)c2ccccc2)C1c1cccs1 (stereo not shown) | 12.7
49 | CC(NC(=O)C(=O)N1CCCCC1)C(c1cccs1)N1CCN(c2ccccc2F)CC1 (stereo not shown) | 3.25
50 | O=C(COc1ccc(F)cc1)N/N=C/c1cccc2cccnc12 | 12.7
51 | COC(=O)N=Nc1c(O)n(Cc2ccccc2)c2ccccc12 | -1.9
52 | COc1ccc(CCNC(=O)c2cc(C(=O)c3cc(C)ccc3O)cn(CCc3ccc(OC)cc3)c2=O)cc1 | 6.89
